# Out of some 320,000 compounds screened, about 7,600 (2.4%) were called active. The inconclusive results got no clear call from the source; some entries with a clear call stand among them for comparison. The call rests on the fitted dose curve; in most records, active means well fitted activation curve with a large enough effect; inconclusive means small, poorly fitted or top-dose-only effect; inactive means no such curve, though single readings can be large or run the other way. Potencies of inconclusive entries are left out as doubtful fits.
# Experiment: qHTS Assay for NPC1 Promoter Activators; further: nearly all actives have a fitted effect of over 60% in size;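 on activation: reporter is driven by a mutant NPC1 promoter; % of control where 0% means no effect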
# Conditions: Huh7 NPC1 promoter luciferase reporter, 24 h; series mostly up to 9.22 µM
# Outline: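 Readout is luciferase luminescence, reflecting NPC1 promoter activation in stably transfected Huh7 cells after 24 h compound exposure at 37 °C in reduced-serum medium with 10% FBS.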
# Potency means the concentration at half of the fitted maximal effect; tags describe the fitted curve by direction and shape.
SMILES,Potency,activation
Cc1cc(C)n(-c2nc(-c3cccc(Cl)c3)cs2)n1,"inconclusive [activator, single point]",
O=C(Nc1ncc([N+](=O)[O-])s1)C1COc2ccccc2O1 (stereo unspecified),active: 3.55 µM,
Oc1ccccc1/C=N/Nc1cccc2cccnc12,"inconclusive [activator, partial curve]",
CCOC(=O)c1sc(NC(=O)Nc2ccccc2F)nc1C,"inconclusive [activator, partial curve, poor fit]",
c1ccn(-c2ccc(-c3ccn[nH]3)cc2)c1,"inconclusive [activator, single point]",
Cc1cccc(Cc2nnc(CCC(=O)N3CCCCC3c3nccs3)o2)c1 (stereo unspecified),inactive,
O=C(Nc1ccc(Cl)cc1)N1CCOC12CCC1(CC2)OCCO1,inactive,
O=C(CSc1nncs1)Nc1ccc2c(c1)OCCO2,"inconclusive [activator, partial curve]",
O=C(c1ccoc1)N1CCC(CO)(CCc2ccccc2)CC1,inactive,
Cc1cc(NC(=O)c2ccccc2C)no1,"inconclusive [activator, partial curve]",
CN(C)c1ccc(C(O)Cc2nc3ccccc3n2C)cc1 (stereo unspecified),"inconclusive [activator, partial curve]",
CC(=O)Nc1ccccc1C(=O)C(=O)Nc1ccc(F)cc1,"inconclusive [activator, single point]",
NC(N)=Nc1nc(C2COc3ccccc3O2)cs1 (stereo unspecified),active: 1.58 µM,
Cc1ccc(CNc2nc3ccccc3n2C)o1,"inconclusive [activator, single point]",
CSc1cccc(NC(=O)/C=C/c2cccc(Cl)c2)c1,"inconclusive [activator, partial curve]",
CCOC(=O)C1=C(NC#N)OC(C)=C(C)C1c1ccc(O)cc1 (stereo unspecified),"inconclusive [activator, single point]",
CC(=O)c1ccc(NC(=O)Nc2ccccc2)cc1,active: 0.447 µM,
COC(=O)c1ccc(OCC(=O)c2ccc(O)cc2O)cc1,"inconclusive [activator, single point]",
Cc1ccc(NC(=O)CSc2nnc(-c3ccccn3)n2N)c(Br)c1,inactive,
CN1CCc2c(sc(NC(=O)c3ccc4ccccc4c3)c2C(N)=O)C1,"inconclusive [activator, partial curve]",
COc1ccc(OC)c(N/C(C)=C/C(=O)c2ccccc2)c1,active: 3.98 µM,
C=CCn1c(C)cc(C(=O)Cn2nc(C(=O)O)c3ccccc3c2=O)c1C,"inconclusive [activator, single point]",
CCCCC1CCC(C(=O)N(CC(C)C)c2c(N)n(Cc3ccccc3)c(=O)[nH]c2=O)CC1 (stereo unspecified),inactive,
Cc1nn(CCOc2ccccc2)c(=O)n1-c1ccccc1F,"inconclusive [activator, partial curve]",
CCn1ccc(C(=O)Nc2ccc(Cl)cn2)n1,active: 3.16 µM,
Cc1ccc2c(c1)COc1c3ccc(C(=O)N4CCOCC4)cc3nn1-2,active: 2.51 µM,

SMILES,Potency,activation
Cc1nc([N+](=O)[O-])cn1CC(=O)c1ccc(OC(F)(F)F)cc1,inactive,
O=C(Nc1cccc(Cl)c1)NC1CCCCC1,"inconclusive [activator, single point]",
COc1ccc(N2CCN(c3n[nH]c(N)n3)CC2)cc1,inactive,
S=C(Nc1ccc(Nc2ccccc2)cc1)N1CCN(c2ncccn2)CC1,inactive,
Cc1c(OCC(F)(F)F)ccnc1CSc1nc2ccccc2[nH]1,"inconclusive [activator, single point]",
Cc1c(NC(=O)c2cccc(NC(=O)COc3ccccc3C#N)c2)c(=O)n(-c2ccccc2)n1C,active: 2.24 µM,
O=C(CN1CCc2ccccc21)Nc1ccc2c(c1)OCCCO2,"inconclusive [activator, single point]",
BrCCOCCOc1ccc2ccccc2c1,"inconclusive [activator, partial curve]",
O=C1c2ccccc2NC(c2cccc([N+](=O)[O-])c2)N1CCc1ccccc1 (stereo unspecified),"inconclusive [activator, partial curve]",
Nc1ccc2nc(-c3cc(Cl)c(N)c(Cl)c3)[nH]c2c1,"inconclusive [activator, single point]",
Cc1cccc(NC(=O)c2cnc3sccn3c2=O)c1C,"inconclusive [activator, single point]",
CCC(=O)Nc1ccccc1C(=O)C(=O)Nc1ccccc1,"inconclusive [activator, partial curve]",
CCC(C)n1ncn(-c2ccc(N3CCN(c4ccc(OC)cc4)CC3)cc2)c1=O (stereo unspecified),inactive,
O=C(COc1cc2oc(=O)c3c(c2cc1Cl)CCC3)Nc1cccnc1,"inconclusive [activator, partial curve]",
Cc1cc(=O)n2[nH]c(-c3ccc(F)cc3)cc2n1,"inconclusive [activator, single point]",
Cc1cccc(C(=O)Nc2ccn(C)n2)c1,"inconclusive [activator, partial curve]",
Cc1cccc(NC(=O)/C(C#N)=C/c2ccc[nH]2)c1C,"inconclusive [activator, partial curve]",
N=c1c2c3c(sc2nc2n1CCCCC2)CCCCC3,"inconclusive [activator, single point]",
Cc1ccc(NC(=O)N2C(=O)C3(OCCO3)c3ccccc32)cc1,active: 3.16 µM,
COc1cc2c(cc1OC)C1O[C@](CCCCN3C(=O)c4ccccc4C3=O)(C2)OC2=C1C(=O)OC1(CCCCC1)C2,,inactive: 0.603% [at 1.84 µM]
COc1cccc(-c2nnc(SCCC(=O)O)n2C)c1,"inconclusive [activator, partial curve]",
COc1ccc(CNC(=O)c2ccc(Br)s2)cc1OC,inactive,
O=C(NC1CCCCC1)c1cc(C2CC2)on1,"inconclusive [activator, single point]",
Cc1ccc(O)c(/C=N/NC(=O)c2[nH]ncc2Br)c1,"inconclusive [activator, partial curve]",
CN(CC(=O)NC1CCN(Cc2ccccc2)CC1)S(=O)(=O)c1ccc(Br)s1,inactive,
O=C(Nc1cccc(Cl)c1Cl)c1ccc(-c2ccccc2)cc1,active: 2.51 µM,

SMILES,Potency,activation
Cc1ccc(/C=N/Nc2nc(Cl)c(Cl)cc2Cl)s1,"inconclusive [activator, single point]",
COc1ccc(C2=NN(C(C#N)c3ccc(OC)cc3)C(c3ccccc3)C2)cc1 (stereo unspecified),"inconclusive [activator, partial curve]",
N#CC1=C(N)N2C(=C(C#N)C1c1cccc(Br)c1)Nc1ccccc12 (stereo unspecified),inactive,
O=C(NC1CCCC1)C1CC(=O)N(c2ccc(F)c(Cl)c2)C1 (stereo unspecified),inactive,
COc1ccc(-c2cc(C(=O)N3CCN(c4ccccc4)CC3)c3ccccc3n2)cc1OC,inactive,
Cc1ccc(N2CC(C(=O)Nc3nnc(SCCN4CCOCC4)s3)CC2=O)cc1 (stereo unspecified),"inconclusive [activator, single point]",
Cc1ccc2nc(-c3ccccn3)[nH]c2c1,"inconclusive [activator, partial curve, poor fit]",
CCc1ccc(NC(=O)c2cc(C(C)C)on2)cc1,active: 0.891 µM,
Clc1ccccc1CSc1cc2c(nn1)-c1ccccc1CC2,"inconclusive [activator, single point]",
C/C=C/Cn1cccc(C(=O)Nc2ccc(OC)cc2)c1=O,"inconclusive [activator, single point]",
Cc1ccc(COc2ccc(/C=N/O)cc2)cc1,"inconclusive [activator, partial curve]",
O=C(Nc1nccs1)c1cncc(Br)c1,"inconclusive [activator, partial curve]",
Oc1ccc(-c2nnc(SCC3CCCCC3)o2)cc1,active: 3.16 µM,
Cc1ccc(NC(=O)CN2C(=O)S/C(=C/c3ccc(-c4cc(C(=O)O)ccc4C)o3)C2=O)cc1C,inactive,
CN(C)S(=O)(=O)c1ccc(-c2cn3ccccc3n2)cc1,"inconclusive [activator, partial curve]",
Cc1cc(NC(=O)c2ccc3c(c2)OCO3)no1,active: 2.51 µM,
O=C(Nc1ccc(S(=O)(=O)N2CCOCC2)cc1)c1ccc2ncsc2c1,"inconclusive [activator, partial curve]",
CCOc1ccc(S(=O)(=O)N2CCCC(C(=O)NCC3CCCO3)C2)cc1Cl (stereo unspecified),inactive,
COc1ccc(C(=O)Nc2cc3c4c(c2)CC(=O)N4CCC3)c(OC)c1,"inconclusive [activator, single point]",
Fc1ccc(Nc2ccc(-c3ccc(F)cc3)nn2)cc1,"inconclusive [activator, single point]",
CCc1nnc(NC(=O)c2cccs2)s1,"inconclusive [activator, single point]",
S=C(N/N=C/c1ccco1)NC1CC2CCC1C2 (stereo unspecified),"inconclusive [activator, partial curve]",
Cc1ccc(C)c(NC(=O)c2ccc3c(=O)n4c(nc3c2)CCC4)c1,"inconclusive [activator, partial curve]",
O=C(Nc1ccc(S(=O)(=O)N2CCCCC2)cc1)C1CC1,inactive,

# Source: PubChem BioAssay AID485313 (National Center for Advancing Translational Sciences (NCATS), 2010)
